Experimental data as given in the supplement of paper PMC4166925.
± gives the standard deviation of the averaged measurements. Whole data set: some 33,000 sequences, median “E-score (dimensionless, -0.5 to 0.5)” near -0.049, cut for the highest 2% near 0.37. The list shows a part of the results.

These sequences were tested on T1, PmTbr T-box DNA-binding domain (GST fusion) (assay: PBM E-score of 8-mer (E-score (dimensionless, -0.5 to 0.5)); Tbr is Tbrain of the sea star Patiria miniata (Pm) or the sea urchin Strongylocentrotus purpuratus (Sp); higher = stronger binding preference; most listed sequences are background and not binding sites). Conditions: the construct has about 5 more residues each side.
T1 sequence: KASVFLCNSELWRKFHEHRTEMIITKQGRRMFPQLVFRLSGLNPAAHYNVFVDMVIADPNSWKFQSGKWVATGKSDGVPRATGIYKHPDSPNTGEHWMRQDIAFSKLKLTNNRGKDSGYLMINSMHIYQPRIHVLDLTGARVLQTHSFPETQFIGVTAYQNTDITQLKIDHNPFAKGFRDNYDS
Method in brief: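 Expression of GST-fused Tbr T-box DNA-binding domains, each holding the full T-box plus roughly five flanking residues, was carried out in BL21 E. coli at 20 °C, with purification by glutathione affinity chromatography. Universal Agilent arrays made double-stranded by primer extension were incubated with the protein at 200 nM in PBS (pH 7.5), then scanned and quantified. All ungapped 8-mers were scored from probe intensities, and each received an enrichment E-score from the Universal PBM Analysis Suite, averaged over duplicate arrays.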

Going from CGTAAGTA to AGATAAGC, the “PBM E-score of 8-mer” value falls from 0.176 ± 0.0052 to -0.0465 ± 0.04.

First: CTCACATC
Second: CCCAAAGG
The “PBM E-score of 8-mer” value of the first is higher: 0.3693 ± 0.0021 for the first, -0.114 ± 0.067 for the second.

AGGGAGAA and CAACCAAA are within error of each other in “PBM E-score of 8-mer” value: -0.0325 ± 0.042 for the first, -0.0758 ± 0.01 for the second.

ACAAGTAG and AACTCTAC are within error of each other in “PBM E-score of 8-mer” value: 0.16 ± 0.052 for the first, 0.118 ± 0.07 for the second.

First: CCACTACA
Second: CCTCTTAA
The “PBM E-score of 8-mer” value of the first is higher: -0.0197 ± 0.026 for the first, -0.115 ± 0.057 for the second.

First: CATTGCTA
Second: AAATGCGC
The “PBM E-score of 8-mer” value of the first is lower: -0.0364 ± 0.011 for the first, 0.142 ± 0.023 for the second.

Going from GTGCAATA to AACCGTTA, the “PBM E-score of 8-mer” value falls from 0.195 ± 0.0037 to 0.0466 ± 0.0096.

Compared with GACCCATA, GATAATGA is higher in “PBM E-score of 8-mer” value: -0.236 ± 0.058 for the first, -0.0927 ± 0.0056 for the second.

First: AGGTGTCC
Second: AAGAAAGT
The “PBM E-score of 8-mer” value of the first is higher: 0.45 ± 0.0092 for the first, -0.0301 ± 0.18 for the second.

Compared with CATCGTAA, ACTCTATA is higher in “PBM E-score of 8-mer” value: -0.18 ± 0.048 for the first, 0.0175 ± 0.018 for the second.

Compared with GGTCATCA, ACTCACGC is higher in “PBM E-score of 8-mer” value: -0.0206 ± 0.077 for the first, 0.244 ± 0.029 for the second.

First: CCTGAGAC
Second: ACGATCGG
The “PBM E-score of 8-mer” value of the first is lower: -0.195 ± 0.064 for the first, 0.0124 ± 0.13 for the second.

Going from CGCCGTTC to CATATATA, the “PBM E-score of 8-mer” value falls from -0.0039 ± 0.009 to -0.244 ± 0.097.

Going from GAGCTACA to AGGGACCC, the “PBM E-score of 8-mer” value falls from 0.037 ± 0.017 to -0.0956 ± 0.013.

Going from AGTAAAGC to TCCTTTCA, the “PBM E-score of 8-mer” value rises from -0.189 ± 0.033 to -0.0321 ± 0.055.

Going from AACAGGAC to AACCGCCG, the “PBM E-score of 8-mer” value falls from -0.0105 ± 0.002 to -0.11 ± 0.015.

AGACAATG and CGCTCAGA are within error of each other in “PBM E-score of 8-mer” value: -0.125 ± 0.066 for the first, -0.0805 ± 0.018 for the second.

First: CCTTCGGA
Second: AACTGCCA
The “PBM E-score of 8-mer” value of the first is lower: -0.0659 ± 0.042 for the first, 0.105 ± 0.01 for the second.

Going from AGCGCATA to CTTAGGTC, the “PBM E-score of 8-mer” value falls from 0.0418 ± 0.028 to -0.168 ± 0.013.

AGCATACG and ATCCCACG are within error of each other in “PBM E-score of 8-mer” value: -0.02 ± 0.06 for the first, -0.0853 ± 0.066 for the second.

CCTATAGC and ACGTCATA are within error of each other in “PBM E-score of 8-mer” value: -0.125 ± 0.021 for the first, -0.0623 ± 0.081 for the second.

CTAATATC and GCCAGATA are within error of each other in “PBM E-score of 8-mer” value: -0.139 ± 0.035 for the first, -0.105 ± 0.0025 for the second.

Compared with CCGTCAGC, ACCATCAA is lower in “PBM E-score of 8-mer” value: 0.202 ± 0.0074 for the first, -0.121 ± 0.008 for the second.

Going from CTCACTAA to GCACAGTA, the “PBM E-score of 8-mer” value falls from 0.169 ± 0.038 to -0.0282 ± 0.022.

First: CGACTTTC
Second: CATGGGAC
The “PBM E-score of 8-mer” value of the first is higher: 0.1558 ± 0.00021 for the first, -0.232 ± 0.096 for the second.

Compared with AACGGTCA, GCAGGGCC is lower in “PBM E-score of 8-mer” value: 0.0487 ± 0.039 for the first, -0.204 ± 0.064 for the second.

Compared with GATGGCAA, GGACGGAC is lower in “PBM E-score of 8-mer” value: 0.0754 ± 0.075 for the first, -0.168 ± 0.013 for the second.

First: AGTCCTTG
Second: CGCCGCTA
The “PBM E-score of 8-mer” value of the first is lower: -0.111 ± 0.013 for the first, 0.0655 ± 0.029 for the second.

AGTGCCCA and TAAAGCTA are within error of each other in “PBM E-score of 8-mer” value: -0.131 ± 0.0019 for the first, -0.112 ± 0.15 for the second.

GCAAGAAA and ATCGTATC are within error of each other in “PBM E-score of 8-mer” value: -0.0627 ± 0.15 for the first, -0.00948 ± 0.015 for the second.

Going from CGCAAGAA to CCGAGACG, the “PBM E-score of 8-mer” value falls from 0.0887 ± 0.099 to -0.201 ± 0.084.

Compared with AACTGCCG, AATACCGG is lower in “PBM E-score of 8-mer” value: 0.0601 ± 0.068 for the first, -0.294 ± 0.068 for the second.

ATCGTCAG and ATCACTGA are within error of each other in “PBM E-score of 8-mer” value: -0.05 ± 0.032 for the first, 0.0524 ± 0.089 for the second.

Going from CTACTGCA to CGCCTGTC, the “PBM E-score of 8-mer” value rises from -0.111 ± 0.053 to 0.303 ± 0.026.

First: CAGTCAGG
Second: GAAATATA
The “PBM E-score of 8-mer” value of the first is lower: -0.27 ± 0.0037 for the first, 0.121 ± 0.078 for the second.

First: CAAGAGAG
Second: TAGATACA
The “PBM E-score of 8-mer” value of the first is lower: -0.303 ± 0.023 for the first, -0.182 ± 0.028 for the second.

Going from AAGGCGTC to GTCGAGGA, the “PBM E-score of 8-mer” value falls from 0.354 ± 0.021 to -0.0465 ± 0.047.

Compared with ACCATGCC, AACCACAG is higher in “PBM E-score of 8-mer” value: -0.147 ± 0.06 for the first, -0.0542 ± 0.027 for the second.

Compared with CAGGCCGG, GCCGTACC is lower in “PBM E-score of 8-mer” value: -0.115 ± 0.0091 for the first, -0.195 ± 0.026 for the second.

Compared with ACGAAATA, CAGTCCGA is lower in “PBM E-score of 8-mer” value: 0.0613 ± 0.011 for the first, -0.0658 ± 0.039 for the second.

Going from CCTGCCCA to CCGTGGAG, the “PBM E-score of 8-mer” value rises from -0.029 ± 0.021 to 0.0713 ± 0.0076.

CATGCGAA and CTGTAAAG are within error of each other in “PBM E-score of 8-mer” value: 0.108 ± 0.046 for the first, 0.101 ± 0.024 for the second.

Compared with CCCTCATC, CCTCGCAG is higher in “PBM E-score of 8-mer” value: -0.186 ± 0.031 for the first, 0.0735 ± 0.061 for the second.

Going from ACGCCAAT to ATTGTGAG, the “PBM E-score of 8-mer” value rises from 0.125 ± 0.037 to 0.2213 ± 0.00029.

First: AATAGACG
Second: CCGCGGGC
The “PBM E-score of 8-mer” value of the first is lower: -0.214 ± 0.072 for the first, -0.0683 ± 0.044 for the second.

Compared with CTAAATGA, AAGCCCTC is lower in “PBM E-score of 8-mer” value: -0.136 ± 0.07 for the first, -0.289 ± 0.054 for the second.

Compared with TCATAAAA, AAAGTGGT is higher in “PBM E-score of 8-mer” value: -0.209 ± 0.017 for the first, 0.106 ± 0.042 for the second.

First: ACACATAC
Second: ATCAAGCC
The “PBM E-score of 8-mer” value of the first is higher: 0.297 ± 0.021 for the first, -0.0171 ± 0.049 for the second.

CAAAACGG and GCTCTTCC are within error of each other in “PBM E-score of 8-mer” value: -0.0396 ± 0.096 for the first, -0.158 ± 0.058 for the second.

Compared with AAACCGAC, ATCTCTGA is lower in “PBM E-score of 8-mer” value: 0.0116 ± 0.036 for the first, -0.257 ± 0.065 for the second.

Compared with CCTAACCG, ATTCATCG is higher in “PBM E-score of 8-mer” value: -0.189 ± 0.08 for the first, 0.0107 ± 0.0037 for the second.

Compared with CGTGCCGC, ACACTGAG is higher in “PBM E-score of 8-mer” value: 0.0781 ± 0.005 for the first, 0.134 ± 0.0067 for the second.

Compared with ACTTGAAG, CAGAAACA is lower in “PBM E-score of 8-mer” value: -0.0242 ± 0.046 for the first, -0.111 ± 0.013 for the second.

Going from GCAAACTA to AATCCGAT, the “PBM E-score of 8-mer” value falls from -0.0543 ± 0.058 to -0.162 ± 0.013.

First: CCAGTGTC
Second: GGACTGAA
The “PBM E-score of 8-mer” value of the first is higher: 0.0539 ± 0.05 for the first, -0.201 ± 0.039 for the second.
